In all, about 310,000 compounds went through this assay and about 2,200 (0.71%) showed an effect of 50% or more. Effects have a minus sign here. The list shows a part of the results.
Molecular target: human ether-à-go-go-related gene (hERG) potassium channel (human, UniProt Q12809)
Assay: primary screen, population patch clamp on CHO cells stably expressing hERG

Sequence of human ether-à-go-go-related gene (hERG) potassium channel (Q12809 whole entry, looked up): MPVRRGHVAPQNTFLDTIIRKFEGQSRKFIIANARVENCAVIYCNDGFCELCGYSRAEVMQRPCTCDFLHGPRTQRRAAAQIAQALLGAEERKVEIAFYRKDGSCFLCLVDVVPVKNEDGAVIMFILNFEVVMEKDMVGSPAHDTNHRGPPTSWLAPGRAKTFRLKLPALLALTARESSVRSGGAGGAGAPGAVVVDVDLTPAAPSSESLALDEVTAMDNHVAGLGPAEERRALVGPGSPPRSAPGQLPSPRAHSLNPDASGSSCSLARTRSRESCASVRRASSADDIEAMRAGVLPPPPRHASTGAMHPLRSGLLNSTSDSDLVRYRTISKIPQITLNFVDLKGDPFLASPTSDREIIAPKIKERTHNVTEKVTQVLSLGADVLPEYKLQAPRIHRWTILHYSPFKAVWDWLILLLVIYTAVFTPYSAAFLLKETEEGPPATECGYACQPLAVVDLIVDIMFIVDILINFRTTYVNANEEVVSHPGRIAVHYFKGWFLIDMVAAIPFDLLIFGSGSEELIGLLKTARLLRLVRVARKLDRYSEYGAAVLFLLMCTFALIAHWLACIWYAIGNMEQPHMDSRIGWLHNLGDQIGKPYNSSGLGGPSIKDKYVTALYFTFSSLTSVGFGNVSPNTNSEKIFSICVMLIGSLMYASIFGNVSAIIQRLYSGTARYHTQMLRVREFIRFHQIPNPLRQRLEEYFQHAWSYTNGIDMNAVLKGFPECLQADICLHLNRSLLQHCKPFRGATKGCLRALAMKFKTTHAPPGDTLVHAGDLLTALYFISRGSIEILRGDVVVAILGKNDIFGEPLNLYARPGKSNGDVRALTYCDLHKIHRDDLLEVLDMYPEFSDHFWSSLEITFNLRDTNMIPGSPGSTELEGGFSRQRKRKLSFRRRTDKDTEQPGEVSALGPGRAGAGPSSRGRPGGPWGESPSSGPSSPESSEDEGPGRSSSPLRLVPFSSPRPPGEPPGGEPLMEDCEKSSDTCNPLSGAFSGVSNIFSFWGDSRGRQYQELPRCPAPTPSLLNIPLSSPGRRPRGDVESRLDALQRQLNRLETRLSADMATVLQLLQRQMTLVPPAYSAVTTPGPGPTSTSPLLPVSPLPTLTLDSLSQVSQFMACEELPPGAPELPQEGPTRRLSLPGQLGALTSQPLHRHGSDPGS

SMILES	hERG current change (%, negative = inhibition) at 1uM
O=C(NCCC(c1ccccc1)c1ccccc1)c1cnc2sccn2c1=O	11.6%
O=C(O)c1ccc2cc(-c3ccccc3)[nH]c2c1	-5.71%
CCCCNC(=O)COC(=O)CCC(=O)c1cccs1	11.3%
CN(CC(=O)Nc1ccccc1C(F)(F)F)C(=O)c1cc2c(s1)CCCCC2	-0.557%
O=C(NC1CCCC1)c1cc2ccccc2o1	3.79%
COc1ccc(Cl)cc1NC(=O)CN(C)C(C)C(=O)NC(=O)NC1CCCCC1 (stereo not drawn)	11.5%
O=C(CC1CCCC1)Nc1ccc(Br)cc1	8.96%
CCN(CC)C(=O)C(=O)c1cccn1-c1cccc(Cl)c1C#N	9.24%
CCOc1ccc(-n2nc3ccc(NC(=O)CC)cc3n2)cc1	9.52%
Cc1ccc(C)c(N(CC(=O)NC2CCCC2)C(=O)c2oc(C(C)(C)C)cc2C)c1	6.1%
O=C1C=C(NCCc2ccccc2)C2(CCCCC2)O1	9.45%
CCOC(=O)C(C)N1C(=O)S/C(=C/c2cc(C)n(-c3ccncc3)c2C)C1=O (stereo not drawn)	7.07%
c1ccc(CCN2CN=C(Nc3nc4ccccc4s3)NC2)cc1	8.04%
O=C(CSc1ccc(F)cc1)NC1CCCCC1	17.2%
Cc1nc(NC(=O)CN2CCN(c3ccccc3F)CC2)sc1C(=O)N(C)C	11.1%
Cc1ccccc1/C=N/n1c(C2CCCCC2)n[nH]c1=S	14.5%
Cc1cnn(-c2cc(N/N=C/c3cccc(F)c3)ncn2)c1	15%
CSCC(=O)N1CCCC(C(=O)c2cc(F)ccc2F)C1 (stereo not drawn)	10.2%
COc1cc(C(=O)Nc2ccc(C(=O)NCC3CCCO3)cc2)cc(OC)c1OC (stereo not drawn)	16.1%
O=C(O)C1CCCN(S(=O)(=O)c2ccc(Br)s2)C1 (stereo not drawn)	6.36%
O=C(NC1CC1)C1CCN(C2CCN(C(=O)Cc3ccc(F)cc3)CC2)CC1	7.67%
Oc1ccccc1C1=Nc2ccccc2N=C(c2ccco2)C1	-1.25%
CC(=O)NC(=O)COC(=O)c1ccc2ncsc2c1	4.53%

SMILES	hERG current change (%, negative = inhibition) at 1uM
COC(=O)CN1C(=O)C2(OCCCO2)c2cc(Br)ccc21	15.3%
CCN1C(=O)[C@@H]2[C@@H](c3ccc(-c4cccc(Cl)c4)c(OC)c3)N3CCCC[C@@]3(C(=O)OC)[C@@H]2C1=O.O=C(O)C(F)(F)F	14.3%
O=C(O)C(Cc1ccccc1)NS(=O)(=O)c1ccc2c(c1)OCCO2 (stereo not drawn)	6.59%
COc1ccc(CCNC(=O)CN2CCCc3ccccc32)cc1OC	10.6%
CC(C)CN(Cc1cc2ccccc2[nH]c1=O)C(=O)c1cccnc1	2.95%
COc1cc(C(=O)OC(C)C(=O)N2CCc3ccccc3C2)ccc1OCC(=O)N1CCOCC1 (stereo not drawn)	7.79%
COP(=O)(C#Cc1ccccc1)C(O)c1ccc(Br)cc1 (stereo not drawn)	6.81%
CC(NC(=O)CCc1nnc(CCCc2ccccc2)o1)c1ccccc1 (stereo not drawn)	0.626%
O=C(CSc1nnc(-c2cccs2)n1CC1CCCO1)N1CCCC1 (stereo not drawn)	-20%
CN(C(=O)c1cc(S(=O)(=O)N2CCc3ccccc32)cn1C)C1CCCCC1	-1.8%
CC(C)NC(=O)c1cc(-c2ccco2)on1	3.22%
Cc1ccc(-c2cc(C(=O)NCCCn3ccnc3)no2)cc1	-8.96%
CCCCCn1c(=O)c(C(=O)NCc2ccccc2Cl)c(O)c2ccccc21	18.1%
COCCOC(=O)c1c(N)n(CCCN2CCOCC2)c2nc3ccccc3nc12	-0.859%
Cc1cc(C)c(NC(=O)C2CCC(=O)N2)c(C)c1 (stereo not drawn)	12.8%
Cc1noc(C)c1CSc1ccccc1C(=O)Nc1nccs1	8.87%
CN1C(=O)Cc2cc(S(=O)(=O)Nc3ccc(N4CCOCC4)cc3)ccc21	12.4%
O=C(COC(=O)CCc1ccccc1)NC(c1ccccc1)c1ccccc1	3.99%
Cc1sc2ncnc(SCC(=O)c3cccs3)c2c1C	-10.2%
Cc1ccc(NC(=S)NCc2ccc(S(N)(=O)=O)cc2)c(C)c1	11%
CCCc1ccc(-c2c(C)sc(N)c2C#N)cc1	16.9%
CC(C)C(=O)NC(Nc1ccccc1F)C(Cl)(Cl)Cl (stereo not drawn)	4.85%
Cc1ccc2c(c1)C(c1ccc(N3CCOCC3)cc1)=NNC(c1cccs1)=N2	5.76%

SMILES	hERG current change (%, negative = inhibition) at 1uM
CCCN1CCc2c(sc(NC(=O)CCS(=O)(=O)c3ccccc3)c2C(N)=O)C1.Cl	-6.02%
Cc1ccc(NC(=O)CC2S/C(=N/c3nccs3)N(C)C2=O)cc1C (stereo not drawn)	9.2%
CN(C)CC/C=C1\c2ccccc2Sc2cc(F)c(Cl)cc21.Cl	6.95%
CCc1nnc(NC(=O)CSc2ccc(Cl)cc2)s1	1.94%
COc1ccc(-c2noc(-c3ccc(Br)o3)n2)cc1OC	10.3%
COc1cccc(-n2c(C)nc3c(cnn3-c3ccc(C)cc3)c2=O)c1	5.26%
Cc1ccc(S(=O)(=O)Nc2ccc(C(=O)N3CCCC3)cc2)c(C)c1NS(C)(=O)=O	13.9%
COCCCNC(=O)CN(c1ccc(F)cc1)S(=O)(=O)c1ccc2c(c1)OCCO2	8.78%
Nc1c(C(=O)NCc2ccc(Cl)cc2)sc2nc3c(c(C(F)(F)F)c12)CCC3	-7.98%
Cc1ccc(CC2C(=O)N(c3nc(C)cc(C)n3)C(=O)C2C)cc1 (stereo not drawn)	-4.39%
CCOC(=O)c1ccc(Cl)c(NC(=O)c2cccnc2)c1	1.53%
CCC1Cc2c(nc(N)c3c(N)nc(N4CCOCC4)c(C#N)c23)O1 (stereo not drawn)	2.66%
Cc1cc(OCC(=O)NCc2cccnc2)c2c(C)c(C)c(=O)oc2c1	-1.54%
CCOC(=O)c1c(/N=C/c2ccc(O)cc2O)sc2c1CCC2	8.96%
O=C(COC(=O)c1cccc2c1C(=O)c1ccccc1C2=O)NC1CCCCC1	7.56%
Cc1ccc(NC(=O)CSc2nnc(-c3ccco3)n2N)cc1F	12.5%
COc1ccc(CCNC(C)C(=O)Nc2ccc(S(N)(=O)=O)cc2)cc1 (stereo not drawn)	5.66%
CC(Sc1nc(N2CCOCC2)nc(N2CCOCC2)n1)C(=O)Nc1ccccc1 (stereo not drawn)	13.7%
COCCCN1C(=O)C(=O)/C(=C(/O)c2ccc(S(=O)(=O)N3CCOCC3)cc2)C1c1ccc(C(C)C)cc1 (stereo not drawn)	7.71%
Cc1ccsc1/C=C(\C#N)C(=O)Nc1c(C)n(C)n(-c2ccccc2)c1=O	2.8%
O=C(CN1C(=O)S/C(=C\c2ccc(Cl)cc2)C1=O)NCCCn1ccnc1	-28.7%
CCCCn1c(=N)n(CC(O)COc2ccc(C)cc2)c2ccccc21.Cl (stereo not drawn)	-77%
COc1cccc(NC(=O)CN(C)C(=O)c2ccc(-c3ccccc3Cl)o2)c1	-5.38%

SMILES	hERG current change (%, negative = inhibition) at 1uM
Clc1ccc(-c2nnnn2-c2ccc(Cl)c(Cl)c2)cc1Cl	6.13%
Nn1c(Cc2cccc3ccccc23)nnc1SCn1nnc2ccccc2c1=O	10.9%
COCC(C)N1C(=O)Cc2c1nc(N)c1c(N)nc(N3CCN(c4ccccc4F)CC3)c(C#N)c21 (stereo not drawn)	11.9%
O=C(CN(C(=O)CNC(=O)c1cccs1)c1ccccc1F)NC1CCCC1	12.5%
O=C(CC1SC(N2CCCC2)=NC1=O)Nc1ccc(C(=O)N2CCCC(C(F)(F)F)C2)cc1 (stereo not drawn)	18.7%
Cc1cc(C(F)F)n2ncc(C(=O)NCCc3ccc(Cl)cc3)c2n1	0.647%
CCc1cccc(OCCn2nc(C(=O)O)c3ccccc3c2=O)c1	14.6%
CNc1nnc(-c2cccc(N(C)C)c2)s1	5%
CCCC/C(O)=C/c1nc2ccccc2[nH]c1=O	1.79%
Cc1nn(-c2ccc(F)cc2)c(Cl)c1/C=C/C(=O)OCC(=O)Nc1ccc(F)cc1F	11.9%
Clc1ccc(/C=N/N2CCCCC2)cc1	7.49%
CCOc1ccc(C(=O)Nc2nnc(C(C)C)s2)cc1OCC	9.04%
O=C(CSc1nnc(CNC(=O)c2ccccc2)o1)Nc1ccc2c(c1)OCO2	3.31%
C/C(=N\NC(=O)c1ccc(N(C)C)cc1)c1ccc(C)cc1C	9.79%
CCOC(=O)C1CCCN(Cc2nc(N)nc(Nc3ccc(Cl)cc3)n2)C1 (stereo not drawn)	-71.6%
O=c1c(-c2ccc(O)cc2)coc2cc(O)ccc12	15.8%
O=C(Cc1cccs1)NCCc1cn2ccccc2n1	3.21%
CN1CCC2(CC1)NC(=O)NC2=O	5.58%
Cc1nn(C)c(C(=O)NNC(=S)NCc2ccco2)c1Cl	2.48%
COc1ccccc1CCNC(=O)c1nccnc1C(=O)O	12.3%
Cc1cccc(C(=O)NCc2ccc(S(N)(=O)=O)cc2)c1[N+](=O)[O-]	6%

Source: PMC4336329 (PLoS ONE, 2015)
